# Reference: article PMC11995724, “Antibiotic target discovery by integrated phenotypic and activity-based profiling of electrophilic fragments” (Cell chemical biology, 2025)
# In all, about 3,200 compounds went through this assay and about 75 (2%) showed an effect of 50% or more. Some of the results follow.
# Test system: T1, S. aureus MSSA476
# T1 construct: MSSA476
# Set-up: species or system S. aureus MSSA476 (TSB) or V. cholerae SAD30 (LB); 384-well bacterial growth screen at 25 uM, OD600 relative to DMSO control
# Settings: relative growth, OD600, TSB; 25 µM; inhibitor
row,Structure (SMILES),% of control remaining [%]
1,"C=CC(=O)N1CSCC1C(=O)N(C)C (stereo not drawn) [1-G03, N,N-dimethyl-3-(prop-2-enoyl)-1,3-thiazolidine-4-carboxamide]",84.044
2,"CC(Cl)C(=O)Nc1cccc([N+](=O)[O-])c1 (stereo not drawn) [6-E08, 2-chloro-N-(3-nitrophenyl)propanamide]",83.6585
3,"COc1ccc(OC)c(N2C(=O)C=CC2=O)c1 [10-N15, 1-(2,5-dimethoxyphenyl)-2,5-dihydro-1H-pyrrole-2,5-dione]",125
4,"Cc1noc(C)c1CN(C(=O)CCl)C1CC1 [7-B05, 2-chloro-N-cyclopropyl-N-[(3,5-dimethyl-1,2-oxazol-4-yl)methyl]acetamide]",93.2496
5,"C=CC(=O)N(C)CC(=O)Nc1ccc(N2CCC(O)CC2)cc1 [3-P06, N-({[4-(4-hydroxypiperidin-1-yl)phenyl]carbamoyl}methyl)-N-methylprop-2-enamide]",86.3735
6,"O=C(CCl)NC(Cc1ccccc1)c1ccccc1 (stereo not drawn) [4-L11, 2-chloro-N-(1,2-diphenylethyl)acetamide]",117.77
7,"CN1C(=O)c2ccccc2C1CNC(=O)CCl (stereo not drawn) [7-B10, 2-chloro-N-[(2-methyl-3-oxo-2,3-dihydro-1H-isoindol-1-yl)methyl]acetamide]",93.8776
8,"Cc1cccc(C=C(C#N)C(=O)Nc2ccc(C(=O)O)cc2)c1 [8-M21, 4-[2-cyano-3-(3-methylphenyl)prop-2-enamido]benzoic acid]",95.6017
9,"C=CC(=O)NCc1ccc(C(=O)N2CCC(NC(C)=O)CC2)cc1 [2-A12, N-{[4-(4-acetamidopiperidine-1-carbonyl)phenyl]methyl}prop-2-enamide]",114.534
10,"C=CC(=O)NCc1cnc2ccsc2c1 [2-D11, N-({thieno[3,2-b]pyridin-6-yl}methyl)prop-2-enamide]",105.831
11,"Cc1ccc(NC(=O)C(C)Cl)cc1 (stereo not drawn) [4-J15, 2-chloro-N-(4-methylphenyl)propanamide]",78.5136
12,"CC(Cl)C(=O)N1CCCc2c1ccc1c2ncn1C (stereo not drawn) [6-B19, 2-chloro-1-{3-methyl-3H,6H,7H,8H,9H-imidazo[4,5-f]quinolin-6-yl}propan-1-one]",75.4634
13,"CC(Cl)C(=O)N1CCc2oc(-c3ccccc3)cc2C1 (stereo not drawn) [6-B21, 2-chloro-1-{2-phenyl-4H,5H,6H,7H-furo[3,2-c]pyridin-5-yl}propan-1-one]",78.1951
14,"CC(Cl)C(=O)NC1CC(=O)N(Cc2ccccc2C(F)(F)F)C1 (stereo not drawn) [6-J19, 2-chloro-N-(5-oxo-1-{[2-(trifluoromethyl)phenyl]methyl}pyrrolidin-3-yl)propanamide]",108.585
15,"Cc1c(Cl)cccc1NC(=O)C(C)Cl (stereo not drawn) [6-I10, 2-chloro-N-(3-chloro-2-methylphenyl)propanamide]",94.5854
16,"CC(Cl)C(=O)N1CCN(C(=O)c2cccc(OC(F)F)c2)CC1 (stereo not drawn) [5-F17, 2-chloro-1-{4-[3-(difluoromethoxy)benzoyl]piperazin-1-yl}propan-1-one]",115.847
17,"N#CC(=Cc1c[nH]c2ccccc12)C(=O)Nc1cccc2ncccc12 [9-N08, 2-cyano-3-(1H-indol-3-yl)-N-(quinolin-5-yl)prop-2-enamide]",101.873
18,"CC(Cl)C(=O)Nc1c(C(C)C)cccc1C(C)C (stereo not drawn) [4-B15, N-[2,6-bis(propan-2-yl)phenyl]-2-chloropropanamide]",128.442
19,"COc1cc(CN(C(=O)CCl)C2CCCOC2)ccc1C (stereo not drawn) [5-E12, 2-chloro-N-[(3-methoxy-4-methylphenyl)methyl]-N-(oxan-3-yl)acetamide]",147.541
20,"N#CC(=Cc1cnn(-c2ccc(Cl)cc2)c1)C(=O)NC1CCCC1 [8-M10, 3-[1-(4-chlorophenyl)-1H-pyrazol-4-yl]-2-cyano-N-cyclopentylprop-2-enamide]",103.568
21,"C=CC(=O)NC(CO)c1cccc(OC)c1 (stereo not drawn) [2-E22, N-[2-hydroxy-1-(3-methoxyphenyl)ethyl]prop-2-enamide]",95.7354
22,"C=CC(=O)Nc1ccc(C(C)CC(N)=O)cc1 (stereo not drawn) [1-I16, 3-[4-(prop-2-enamido)phenyl]butanamide]",123.429
23,"C=CC(=O)N1CCC(c2ccc(OC)c(F)c2)C1 (stereo not drawn) [3-K19, 1-[3-(3-fluoro-4-methoxyphenyl)pyrrolidin-1-yl]prop-2-en-1-one]",111.798
24,"Cc1csc(COC2CCN(C(=O)CCl)C2)n1 (stereo not drawn) [5-M08, 2-chloro-1-{3-[(4-methyl-1,3-thiazol-2-yl)methoxy]pyrrolidin-1-yl}ethan-1-one]",97.2678
25,"C=CC(=O)N1CCCC1Cn1c(C)nc2ccccc21 (stereo not drawn) [1-J05, 1-{2-[(2-methyl-1H-1,3-benzodiazol-1-yl)methyl]pyrrolidin-1-yl}prop-2-en-1-one]",123.429
26,"Cl.O=C(CCl)NC1c2ccccc2CCC1n1ccnc1 (stereo not drawn) [7-N14, 2-chloro-N-[2-(1H-imidazol-1-yl)-1,2,3,4-tetrahydronaphthalen-1-yl]acetamide hydrochloride]",71.8995
27,"Cc1oc(C(N)=O)cc1C(=O)CCl [10-M05, 4-(2-chloroacetyl)-5-methylfuran-2-carboxamide]",125.938
28,"N#CC(=Cc1ccc(O)cc1)C(=O)NCc1ccco1 [9-N10, 2-cyano-N-[(furan-2-yl)methyl]-3-(4-hydroxyphenyl)prop-2-enamide]",90.1873
29,"CC(Cl)C(=O)NC1CCCCCC1 (stereo not drawn) [5-O21, 2-chloro-N-cycloheptylpropanamide]",92.8962
30,"CCN(Cc1cccs1)C(=O)CCl [5-F07, 2-chloro-N-ethyl-N-[(thiophen-2-yl)methyl]acetamide]",81.2386
